In PubChem BioAssay AID1508621 (National Center for Advancing Translational Sciences (NCATS), 2021):
The shares of active, inactive and inconclusive entries below differ from those in the screen. Potencies of inconclusive entries are doubtful fits and often do not repeat. Calls of active or inactive are those of the source. The call rests on the fitted dose curve; in most records, active means well fitted inhibition curve with a large enough effect; inconclusive means small, poorly fitted or top-dose-only effect; inactive means no such curve, though single readings can be large or run the other way.

Experiment: Confirmatory qHTS for Identification of Small Molecule Inhibitors of Huntingtin Promoter Activity; further: nearly all actives have a fitted effect of over 65% in size
Details: HEK293 HTT promoter firefly luciferase reporter, 24 h; series mostly up to 57.5 µM
How it was run: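 2,500 luciferase reporter HEK293 cells/well; 24 h culture; cpds up to 57.5 uM final, PTC124 50 uM ctrl; 24 h, 37C; Dual-Glo FLuc reagent, 10 min RT; lum. Norm.: vehicle 0%, zero RLU -100%.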
Potency means the concentration at half of the fitted maximal effect; tags describe the fitted curve by direction and shape.

SMILES | Potency
COc1ccc(Nc2nc(-c3ccc(C)cc3)nc3ccccc23)c(OC)c1 | inactive
Cc1ccc(Cl)cc1N1CCN(C(=O)c2cnc(N3CCOCC3)c3ccccc23)CC1 | inconclusive: 23.9 µM [inhibitor, partial curve]
CCOc1cccc(NC(=O)c2ccc(F)c(S(=O)(=O)N(CC)c3cccc(C)c3)c2)c1 | inconclusive: 19 µM [inhibitor, single point]
CCN(CC)c1ccc(NC(=O)c2sc3nc(-c4ccccc4)cn3c2C)cc1 | inconclusive: 23.9 µM [inhibitor, partial curve]
CCOC(=O)C1CCN(S(=O)(=O)c2ccc(N3CCCCS3(=O)=O)cc2)CC1 | inconclusive: 4.78 µM [inhibitor, full curve]
CCOC(=O)c1cc(-c2ccccc2)n(CCCC(=O)Nc2ccc(CC)cc2)c1C | inconclusive: 26.9 µM [inhibitor, single point]
Cc1ccc(C)c(N2CCN(C(=O)CCS(=O)(=O)c3ccc4c(c3)CC(=O)N4C)CC2)c1 | inconclusive: 12 µM [inhibitor, partial curve]
CCc1ccc(NC(=O)C2CCCN(S(=O)(=O)c3ccc(F)cc3)C2)cc1 (stereo not given) | inconclusive: 21.3 µM [inhibitor, single point]
COc1cc(NS(=O)(=O)c2ccc(-c3cc(C)no3)cc2)cc(OC)c1 | inconclusive: 0.953 µM [inhibitor, partial curve]
CCc1ccc(CNC(=O)Cn2ccc3cc(S(=O)(=O)N4CCCCCC4)ccc32)cc1 | inconclusive: 26.9 µM [inhibitor, partial curve]
COc1cccc(C(=O)NCCSc2c(-c3ccc(F)cc3)[nH]c3ccccc23)c1OC | inconclusive: 21.3 µM [inhibitor, partial curve]
O=C(Cn1c(=O)oc2cc(S(=O)(=O)N3CCCCC3)ccc21)NCc1ccc(Cl)cc1 | inactive
Cc1ccccc1Nc1c(-c2cccnc2)nc2cccc(C)n12 | inconclusive: 23.9 µM [inhibitor, partial curve]
COc1cc(NC(=O)Cn2c(=O)oc3cc(S(=O)(=O)N4CCCCCC4)ccc32)cc(OC)c1 | inconclusive: 6.75 µM [inhibitor, full curve]
O=C(NCc1ccc(Cl)cc1)C1CCN(S(=O)(=O)c2ccc3c(c2)CCCN3C(=O)C2CCC2)CC1 | inconclusive: 16.9 µM [inhibitor, partial curve]
CCOC(=O)c1cccc(NC(=O)CCn2c(-c3ccc(F)cc3)cc(C(=O)OCC)c2C)c1 | inconclusive: 26.9 µM [inhibitor, single point]
CCN(c1ncnc2c1cnn2-c1cc(Cl)ccc1C)C1CCCCC1 | inconclusive: 26.9 µM [inhibitor, single point]
COc1cc(Nc2ncc3c(n2)CCN(Cc2cc(F)cc(F)c2)C3)cc(OC)c1 | inconclusive: 4.78 µM [inhibitor, full curve]
CCN1C(=O)c2ccccc2Sc2ccc(NC(=O)Nc3cccc([N+](=O)[O-])c3C)cc21 | inconclusive: 13.5 µM [inhibitor, partial curve]
COc1ccc(CNC(=O)c2oc3c(c2C)-c2nn(Cc4ccccc4Cl)cc2CC3)cc1 | inconclusive: 23.9 µM [inhibitor, partial curve]

SMILES | Potency
Cn1cnc(=N)c2[nH]cnc21 | inactive
CCN(CC)S(=O)(=O)c1ccc2c(c1)N(CC(=O)N1CCN(c3cccc(C(F)(F)F)c3)CC1)C(=O)CO2 | inconclusive: 26.9 µM [inhibitor, single point]
Cc1cc(-c2ccc(S(=O)(=O)Nc3cccc(C)c3C)s2)on1 | inconclusive: 10.7 µM [inhibitor, partial curve]
O=C(CSc1nccn1Cc1ccc(F)cc1)Nc1nc2ccccc2s1 | inactive
O=S(=O)(Nc1ccc(OC(F)(F)F)cc1)c1ccc(N2CCCCS2(=O)=O)cc1 | inconclusive: 15.1 µM [inhibitor, partial curve]
COc1ccc(-c2noc(CSc3nc4ccccc4[nH]3)n2)cc1OC | inconclusive: 12 µM [inhibitor, partial curve]
COC(=O)C1=C(C)NC(C)=C(C(=O)OCC(C)=O)C1c1ccccc1[N+](=O)[O-] (stereo not given) | inactive
Cc1cccc(N2CCN(S(=O)(=O)c3ccc(F)c(C(=O)Nc4cccc(Cl)c4C)c3)CC2C)c1 (stereo not given) | inconclusive: 16.9 µM [inhibitor, partial curve, poor fit]
CC(=O)c1ccc(NC(=O)c2ccc(-c3nc(CSc4ccc(C)cc4)c(C)o3)cc2)cc1 | inconclusive: 4.26 µM [inhibitor, full curve]
CCC(=O)N1CCCc2cc(S(=O)(=O)N3CCC(C(=O)Nc4ccccc4CC)CC3)ccc21 | inconclusive: 19 µM [inhibitor, single point]
O=C(CSc1ccc(-c2ccccn2)nn1)Nc1ccc(F)c(F)c1 | inactive
O=C(Nc1ccc(F)c(Cl)c1)c1cc(S(=O)(=O)N2CCCc3ccccc32)ccc1F | inconclusive: 37.9 µM [inhibitor, single point]
Cc1nc2nncn2c(NCc2ccc(Cl)cc2)c1C | inconclusive: 1.51 µM [inhibitor, full curve]
Cc1cccc(N2CCN(C(=O)c3ccc4c(c3)N(Cc3cccc(Cl)c3)C(=O)c3ccccc3S4=O)CC2C)c1 (stereo not given) | inconclusive: 15.1 µM [inhibitor, partial curve]
Cc1ccc2nc(-c3ccncc3)c(Nc3ccccc3C)n2c1 | inactive
O=c1[nH]c2ccc(NCc3ccc(-c4ccccc4)o3)cc2[nH]1 | inconclusive: 8.49 µM [inhibitor, full curve, poor fit]
COc1ccc(NS(=O)(=O)c2ccc3c(c2)CCN3C(=O)C2CC2)cc1OC | inconclusive: 1.9 µM [inhibitor, full curve]
COc1cc(C(=O)NCCSc2c(-c3ccccc3)[nH]c3ccccc23)cc(OC)c1OC | inconclusive: 23.9 µM [inhibitor, partial curve]
COc1cccc(N2CCN(C(=O)c3cccc(-n4c(C)nc5cccnc54)c3)CC2)c1 | active: 23.9 µM
COc1ccccc1CNC(=O)c1oc2ccc(S(=O)(=O)N3CCCCC3)cc2c1C | inconclusive: 12 µM [inhibitor, partial curve]
